# Whole data set: some 33,000 sequences, median “E-score (-0.5 to 0.5)” near -0.016, cut for the highest 2% near 0.32. This is one part of the list.
# Biological target: T1, Stp1 (UniProt B3LFK1)
# T1 sequence: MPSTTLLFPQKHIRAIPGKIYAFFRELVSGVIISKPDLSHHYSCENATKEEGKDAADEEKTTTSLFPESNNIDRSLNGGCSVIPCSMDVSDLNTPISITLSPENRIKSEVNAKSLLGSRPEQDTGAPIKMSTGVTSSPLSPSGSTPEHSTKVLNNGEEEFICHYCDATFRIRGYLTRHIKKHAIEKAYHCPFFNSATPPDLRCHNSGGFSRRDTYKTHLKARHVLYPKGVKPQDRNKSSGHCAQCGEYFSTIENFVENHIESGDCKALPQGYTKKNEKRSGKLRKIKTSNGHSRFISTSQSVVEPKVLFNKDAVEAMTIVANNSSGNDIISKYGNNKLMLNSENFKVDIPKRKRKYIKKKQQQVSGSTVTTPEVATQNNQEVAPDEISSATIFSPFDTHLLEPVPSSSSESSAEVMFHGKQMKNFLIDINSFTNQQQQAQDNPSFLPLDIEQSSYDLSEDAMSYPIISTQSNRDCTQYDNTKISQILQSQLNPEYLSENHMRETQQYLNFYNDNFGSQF
# Experiment: PBM E-score (8-mer binding enrichment) (E-score (-0.5 to 0.5)); higher = stronger / more preferred TF binding; most listed sequences are background and not binding sites
# Details: protein concentration: 200 nM; construct: GST-full length
# Experimental: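 Universal 'all 10-mer' protein binding microarrays (Agilent AMADID 015681) probed with GST-tagged S. cerevisiae TFs (full-length or DBD) made by in vitro transcription/translation (PURExpress), about 100-200 nM. Bound TF was detected with fluorescent anti-GST. Each ungapped 8-mer (which stands for itself and its reverse complement) is scored by the PBM enrichment score (E-score), a modified Wilcoxon-Mann-Whitney statistic from -0.5 to +0.5, computed with the Universal PBM Analysis Suite. Scale: above 0.35 generally sequence-specific binding.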
row,Sequence,PBM E-score
1,GGGGACAA,-0.121
2,AACTACTG,-0.0275
3,CACGAGTA,0.216
4,ACAACTCA,0.102
5,CCAGACGG,-0.0852
6,CGGTGCGA,-0.109
7,AATTGGAA,0.0908
8,ATTGGAGA,0.0299
9,CGATGCCC,0.0311
10,TGCCGAAA,0.141
11,CCGCTATA,-0.0378
12,AATAGGAA,0.0273
13,AATCACCG,0.11
14,AGAGGTTA,-0.101
15,AGGCTATC,-0.093
16,AATTCGAT,0.156
17,GTACTCAA,0.00736
18,ACGTGGGA,-0.165
19,AAACCGTT,-0.0806
20,GTAGGCGA,0.135
21,AGTATAAG,0.0872
22,CGACAGTC,-0.226
23,CGAGAGTA,-0.0994
24,AGCAGCTG,-0.12
25,CGCTGGCC,-0.267

row,Sequence,PBM E-score
1,CCAGAGAG,-0.245
2,GTAGCCAA,-0.0741
3,AACTCGAT,0.0342
4,CTCATTGA,-0.115
5,AAGACCAC,-0.297
6,AGGATGGC,0.14
7,ACACTCCG,-0.00205
8,CAGAGTGA,-0.106
9,CAGTGTGC,-0.0685
10,ATAAGATA,0.176
11,CACAACAC,0.16
12,CAGTCCGG,-0.161
13,ATTGCTCC,-0.002
14,CCCTTTTC,-0.0962
15,AGAATCCC,0.0569
16,CTCGGGGC,-0.163
17,CTACGGTC,-0.118
18,AAATCATT,-0.0682
19,CTCCATTC,-0.264
20,CACAGTAC,-0.0949
21,ACGGGCAT,0.145
22,GAACGCTA,-0.153
23,GCAGGGAC,-0.274
24,GCTAGAGC,-0.046
25,GGGCAAAA,0.142

row,Sequence,PBM E-score
1,GTATAGCA,0.16
2,CCTTCCAA,-0.12
3,TACACCTA,0.00928
4,CATAGGCG,-0.157
5,GCATATAC,0.0783
6,ACGCGGTA,0.0505
7,GTTCAGTA,0.116
8,AGGCTGTG,-0.208
9,ACCTAGCC,-0.186
10,AACCCGGA,-0.157
11,ATGCCATC,0.21
12,CCGGTGCC,0.172
13,AAAGATTT,0.0306
14,CATTCGCC,0.143
15,CCTGACCG,-0.211
16,CGTTATCC,-0.068
17,AACAGACC,0.0691
18,CAACTCTG,-0.126
19,CTCGGATC,-0.0738
20,CTTCGCGA,-0.0616
21,ATTAAAGC,0.0702
22,CAGCGCTC,-0.109
23,TCACTCCA,-0.198
24,CGCGTAAC,0.0809
25,CGGTCAGA,-0.195

row,Sequence,PBM E-score
1,AGTCCCCA,-0.291
2,ATCGCCGA,0.212
3,TCTTATAA,0.0601
4,AAAAGGGT,-0.207
5,TCGGATAA,0.0764
6,ATCAGCCA,-0.126
7,TACGGGGA,0.0612
8,AGGCCATC,-0.122
9,TCAGGTAA,-0.131
10,AGCAGTTC,-0.0959
11,AAATGGAC,0.204
12,CGTTATAA,0.0748
13,GTACGGAA,0.165
14,CAAAAAGG,-0.0151
15,AGTTGTTC,0.0553
16,ATATCCGC,0.158
17,CTAATGTC,-0.0773
18,AGACTGTG,-0.193
19,TACCCGTA,0.155
20,CTCCTACC,-0.231
21,CAGCCTGG,-0.267
22,ATATCGGA,-0.0326
23,ATAAGCTA,0.131
24,CGCCAGTC,0.0457
25,ACTTGCAG,-0.108

row,Sequence,PBM E-score
1,CTTAACCC,-0.277
2,ATTGCGTC,-0.107
3,CACCCAAC,-0.157
4,AACTTATG,0.0958
5,CGTAATTC,0.078
6,AAAGTCTT,0.0164
7,TTGAAAAA,0.189
8,AGAGAAGA,-0.171
9,CCCCCAGA,-0.37
10,ACTCTACT,0.00683
11,ACGACGAA,0.167
12,AGTATGTC,-0.0239
13,GCCCAAAC,0.0362
14,GAAATATC,0.124
15,CACGGTCA,-0.0806
16,AAGTCAGA,-0.083
17,AAGCTTGA,-0.141
18,AGCCGGCC,0.0296
19,ACCTACTC,-0.103
20,AGGTAACT,0.0354
21,CCTCAAGA,-0.124
22,CCCTTTCC,-0.11
23,ACCAACAA,0.163
24,AAAGAGAA,-0.00174
25,CCGTGATC,-0.0429

row,Sequence,PBM E-score
1,ACCTTGCA,-0.101
2,ACCAGCGG,-0.085
3,GTATGCCA,-0.0419
4,AACGCGGT,0.0233
5,CAATCTTA,0.00266
6,ACTTTCCC,-0.174
7,CTTGTTTA,0.117
8,TCAACGAA,0.0664
9,AGCGAAAA,0.035
10,ATGGCCAG,-0.0726
11,AGTTCAAT,-0.0607
12,CCAAGAAC,0.0116
13,ACCTAATG,-0.206
14,CCGCCTAC,-0.0313
15,GCACACAC,-0.0691
16,GTCCACAA,-0.112
17,AAGTAATA,-0.0246
18,TCCTGAGA,-0.0508
19,AGAGGATC,-0.161
20,CCCAAAAA,0.0647
21,TAATCGTA,0.0362
22,ATGTCGAG,0.143
23,GGTCGAGA,-0.26
24,ATTGCGTG,-0.0299
25,ACGATCCG,-0.0174

row,Sequence,PBM E-score
1,ACCACAAG,-0.0807
2,CGGTCCGC,0.0007
3,TTAGCTAA,0.13
4,ACTACAAA,0.103
5,ATCGGATG,-0.033
6,GCGTACAC,-0.102
7,AACTGACT,-0.018
8,GCAAGCTA,-0.0537
9,ATTAGATC,-0.0764
10,CACCTACA,-0.0664
11,ATCTTTAC,0.0911
12,CAATACTG,-0.149
13,GATTCTGA,-0.00106
14,AACGTAAG,0.00659
15,CTTGCAGC,-0.0407
16,AGTCCCTC,-0.343
17,GGAAGGAA,-0.0797
18,AGCTAGCC,-0.143
19,CCTCAACC,-0.0827
20,AAGTGGGA,0.118
21,CTCTCGGC,-0.101
22,GCCCGAAC,-0.0752

# Reference: the supplement of paper PMC3334620
